The source gives no read counts; variants with many changes may rest on few reads.
B1: LINE1-full (parent)
chain: UACGUAGGUGGUUUUCCCCUGAUAGUGCUAAGGGGGCCUGGAAGUUUGGACUGGGCAGAGCUCAACACAGCGUGGCAAAGUGGCUGUGGCUAGACUGCCUCUCUGGAUUCCUCGUCACUCAGCAGGGCAUCUCUGAGAGAAAUGCC

Variants of: B1
Assay: self-cleavage, relative activity (ratio to wild type); higher = more cleavage; in vitro, sequencing; the parent is a self-cleaving ribozyme

Row | Variant | self-cleavage
1 | UACGUAGGUGGUUUUCCCCUGAUAGUGCUAAGGGGGCCUGGAAGCUUGGACUGGGCAGAGCUCAACACAGCGUGGCAAAGUGGCCGUGGCUAGACUGCCUCUCUGGAUACCUCGUCACUCAGCAGGGCAUCUCUGAGAGAAAUGCC [U45C U85C U109A] | 0.13
2 | UACGUAGGUGGUUUUCCCCUGAUAGUGCUAAGGGGGCCUGGAAGCUUGGACUGGGCAGAGCUCAACACAGCGUGGCAAAGUGGCUGAGGCUAGACUGCCUCUCUGGAUUCCUCGUCACUCAGCAGGGCAUCUCUGUGAGAAAUGCC [U45C U87A A136U] | 0.34
3 | UACGUAGGUGGUUUUCCCCUGAUAGUGCUAAGGGGGCCUGGAAGCUUGGACUGGGCAGAGCUCAACACAGCGUGGCAAAGUGGCUGAGGCUAGACUGCCUCUCUGGAUUCCCCGUCACUCAGCAGGGCAUCUCUGAGAGAAAUGCC [U45C U87A U112C] | 0.17
4 | UACGUAGGUGGUUUUCCCCUGAUAGUGCUAAGGGGGCCUGGAAGCUUGGACUGGGCAGAGCUCAACACAGCGUGGCAAAGUGGCUGCGGCUAGACUGCCUCUCUGGAUUCCUCGUCACUCAGCAGGGCAUCUCUGGGAGAAAUGCC [U45C U87C A136G] | 0.19
5 | UACGUAGGUGGUUUUCCCCUGAUAGUGCUAAGGGGGCCUGGAAGCUUGGACUGGGCAGAGCUCAACACAGCGUGGCAAAGUGGCUGCGGCUAGACUGCCCCUCUGGAUUCCUCGUCACUCAGCAGGGCAUCUCCUAGAGAAAUGCC [U45C U87C U100C U134C G135U] | 0
6 | UACGUAGGUGGUUUUCCCCUGAUAGUGCUAAGGGGGCCUGGAAGCUUGGACUGGGCAGAGCUCAACACAGCGUGGCAAAGUGGCUGUGGCUAGACCGCCUCUCUGGAUUCUUCGUCACUCAGCAGGGCAUCUCUGAGAGAAAUGCC [U45C U96C C111U] | 0.19
7 | UACGUAGGUGGUUUUCCCCUGAUAGUGCUAAGGGGGCCUGGAAGCUUGGACUGGGCAGAGCUCAACACAGCGUGGCAAAGUGGCUGUGGCUAGACUGCCACUCUGGAUUCCUCGACACUCAGCAGGGCAUCUCUGAGAGAAAUGCC [U45C U100A U115A] | 0.5
8 | UACGUAGGUGGUUUUCCCCUGAUAGUGCUAAGGGGGCCUGGAAGCUUGGACUGGGCAGAGCUCAACACAGCGUGGCAAAGUGGCUGUGGCUAGACUGCCCCUCUGGAUUCCUCGUCACUCAGCAGGGCAUCUCUGAGAGGAAUGCC [U45C U100C A140G] | 1.1
9 | UACGUAGGUGGUUUUCCCCUGAUAGUGCUAAGGGGGCCUGGAAGCUUGGACUGGGCAGAGCUCAACACAGCGUGGCAAAGUGGCUGUGGCUAGACUGCCUCUCUGGACUCCUCGUCGCUCAGCAGGGCAUCUCUGAGAGAAAUGCC [U45C U108C A117G] | 0
10 | UACGUAGGUGGUUUUCCCCUGAUAGUGCUAAGGGGGCCUGGAAGCUUGGACUGGGCAGAGCUCAACACAGCGUGGCAAAGUGGCUGUGGCUAGACUGCCUCUCUGGAUACCUCGUCACUCAGCAGGGCAUCUCUGAGAGGAAUGCC [U45C U109A A140G] | 0.65
11 | UACGUAGGUGGUUUUCCCCUGAUAGUGCUAAGGGGGCCUGGAAGCUUGGACUGGGCAGAGCUCAACACAGCGUGGCAAAGUGGCUGUGGCUAGACUGCCUCUCUGGAUCCCUCGUCACUCAGCAGGGCAUCUCUGAGGGAAAUGCC [U45C U109C A138G] | 0.51
12 | UACGUAGGUGGUUUUCCCCUGAUAGUGCUAAGGGGGCCUGGAAGCUUGGACUGGGCAGAGCUCAACACAGCGUGGCAAAGUGGCUGUGGCUAGACUGCCUCUCUGGAUUCCUCGUCACACAGCAGGGCAUCUCUGAGGGAAAUGCC [U45C U119A A138G] | 1.85
13 | UACGUAGGUGGUUUUCCCCUGAUAGUGCUAAGGGGGCCUGGAAGCUUGGACUGGGCAGAGCUCAACACAGCGUGGCAAAGUGGCUGUGGCUAGACUGCCUCUCUGGAUUCCUCGUCACACAGCAGGGCAUCUCUGAGAGAAACGCC [U45C U119A U143C] | 0.9
14 | UACGUAGGUGGUUUUCCCCUGAUAGUGCUAAGGGGGCCUGGAAGCUUGGACUGGGCAGAGCUCAACACAGCGUGGCAAAGUGGCUGUGGCUAGACUGCCUCUCUGGAUUCCUCGUCACUCAGCAGGGCAUCCCUGAGAGCAAUGCC [U45C U132C A140C] | 1.67
15 | UACGUAGGUGGUUUUCCCCUGAUAGUGCUAAGGGGGCCUGGAAGCUUGGACUGGGCAGAGCUCAACACAGCGUGGCAAAGUGGCUGUGGCUAGACUGCCUCUCUGGAUUCCUCGUCACUCAGCAGGGCAUCCCUGAGAGAAGUGCC [U45C U132C A142G] | 2.09
16 | UACGUAGGUGGUUUUCCCCUGAUAGUGCUAAGGGGGCCUGGAAGGUUGGGCUGGGCAGAGCUCAACACAGCGUGGCAAAGUGGCUGUGGCUAGACUGCCUCUCUGGAUUCCUCGUCACUCAGCAGGGCAUCUCUGAGAGAAGUGCC [U45G A50G A142G] | 1.08
17 | UACGUAGGUGGUUUUCCCCUGAUAGUGCUAAGGGGGCCUGGAAGGUUGGUCUGGGCAGAGCUCAACACGGCGUGGCAAAGAGGCUGUGGCUAGACUGCCCCUCUGGAUUCCUCGUCACUCAGCAGGGCAUCUCUGAGAGAAAUGCC [U45G A50U A69G U81A U100C] | 0.61
18 | UACGUAGGUGGUUUUCCCCUGAUAGUGCUAAGGGGGCCUGGAAGGUUGGACUGGGCGGAGCUCAACACAGCGUGGCAAAGUGGCUGUGGCUAGACUGCCUCCCUGGAUUCCUCGUCACUCAGCAGGGCAUCUCUGAGAGAAAUGCC [U45G A57G U102C] | 0.51
19 | UACGUAGGUGGUUUUCCCCUGAUAGUGCUAAGGGGGCCUGGAAGGUUGGACUGGGCAGAGCUCAACACCGCGUGGCAAAGUGGCUGUGGCUAGACUGCCUCUCUGGACUCCUAGUCACUCGGCAGGGCAUCUCUGAGAGAAAUGCC [U45G A69C U108C C113A A121G] | 0

Source: the RNAGym collection of RNA variant scans (doi:10.7554/elife.90254)
